“And” between values parts separate entries of the source, which are not always exact repeats. Equal entries are not always repeated. Out of some 130,000 compounds screened, about 1,900 (1.5%) were called active. The shares of active, inactive and inconclusive entries below differ from those in the screen. The call rests on the fitted dose curve; in most records, active means well fitted cell-killing curve with a large enough effect; inconclusive means small, poorly fitted or top-dose-only effect; inactive means no such curve, though single readings can be large or run the other way. A potency beside an inconclusive call is a rough fit, not a confirmed value. Some compounds were tested as several samples or in several runs, with calls that do not always agree.
experiment: qHTS Screen for Compounds that Selectively Target Cancer Cells with p53 Mutations: Cytotoxicity of p53ts Cells at the Nonpermissive Temperature; conditions: H1299-p53A138V viability at 39C, ATP luminescence, 24 h; activity change, negative = cell killing: at 46.1 µM (top of the series); further: nearly all actives have a fitted effect of over 55% in size
On the % scale 0 is the no-effect control and ±100 the full control effect; potency means the concentration at half of the fitted maximal effect; tags describe the fitted curve by direction and shape.

| Structure (SMILES) | activity change, negative = cell killing | Potency |
| --- | --- | --- |
| CCc1c(C)sc2c1CCN(C(=O)Nc1cc(C)ccc1OC)C2c1ccc(F)cc1 (centres undefined) | inactive: -0.431% |  |
| Cc1ccc(NS(=O)(=O)c2ccc3[nH]c4c(c3c2)CCCCCC4)cc1 |  | inconclusive: 31.6 µM [cytotoxic, single point] |
| CCCN(CCC)CCNC(=O)c1sc2nc3n(c(=O)c2c1C)CCCCC3 |  | inconclusive: 2.24 µM [cytotoxic, partial curve, poor fit] |
| C=CCc1ccc(OCc2ccc(C(=O)Nc3ccc(NC(C)=O)cc3)o2)c(OC)c1 |  | inconclusive: 31.6 µM [cytotoxic, single point] |
| CCOC(=O)c1ccn(-c2nc(-c3ccco3)cc(C(F)(F)F)n2)n1 |  | inconclusive: 0.794 µM [cytotoxic, full curve, poor fit] |
| O=C(Nc1ccc2c(c1)nc1n2CCSC1)c1ccccc1 |  | active: 6.31 µM |
| CCN(C(=O)Cn1c(=O)nc(-c2ccccc2)c2cc(Cl)ccc21)c1cccc(C)c1 |  | active: 15.8 µM |
| O=C(CCC(=O)N1CCSc2ccccc21)NCc1ccccc1Cl | inactive: 5.85% |  |
| Cc1cc(C)cc(NC(=O)c2cnn(-c3ccc(C)c(C)c3)c2C2CCNCC2)c1 |  | inconclusive: 25.1 µM [cytotoxic, single point] |
| O=C(NCc1ccc(F)cc1)c1ccc(Cn2c(SCc3ccc(F)cc3)nc3cccnc32)cc1 |  | inconclusive: 6.31 µM [cytotoxic, partial curve] |
| O=C(Nc1ccc2oc(-c3ccccc3)nc2c1)c1cccnc1 | inactive: -8.64% |  |
| CC[C@H](C)C(=O)O[C@H]1CCC=C2C=C[C@H](C)[C@H](CC[C@@H]3C[C@H](O)CC(=O)O3)[C@H]21 |  | inconclusive: 25.1 µM [cytotoxic, single point] |
| CSCc1nnc(NC(=O)c2ccc(S(=O)(=O)N(CC(C)C)CC(C)C)cc2)o1 |  | active: 12.6 µM |
| Nc1nc2ccc(N3CCOCC3)cc2s1 |  | active: 3.98 µM |
| COC(=O)c1ccccc1NC(=O)c1ccc2c(=O)n3c(nc2c1)CCCCC3 |  | inconclusive: 10 µM [cytotoxic, partial curve] |
| COc1ccc(C(=O)NCC(c2ccc(N(C)C)cc2)N2CCc3ccccc32)cc1 (centres undefined) |  | active: 10 µM |
| CCn1c(/C(C#N)=C/c2ccccc2Cl)nc2ccccc21 |  | inconclusive: 0.0501 µM [cytotoxic, full curve, poor fit] |
| Cc1ccc(CNC(=O)Cn2c(=O)n(Cc3ccccc3)c(=O)c3sc4ccccc4c32)cc1 |  | inconclusive: 0.005 µM [cytotoxic, full curve, poor fit] |
| CCOC(=O)c1cc(NC(=O)c2ccc(Cl)cc2)c(=O)n2c1oc1ccccc12 | inactive: 5.21% |  |
| COc1ccc(Nc2c3c(nc4ccc(NC(=O)/C=C/c5cccc(OC)c5OC)cc24)CCCC3)cc1OC |  | active: 10 µM |
| O=C(Nc1ccc(Br)cc1)c1cccc(C(=O)Nc2ccc(Br)cc2)c1 |  | inconclusive: 10 µM [cytotoxic, partial curve] |
| CN(C)C(=O)c1ccc(-c2ccc3ncnc(NCc4ccccc4)c3c2)cc1 | inactive: 5.39% |  |

| Structure (SMILES) | activity change, negative = cell killing | Potency |
| --- | --- | --- |
| COc1ccc(CNC(=O)C2CCCN(C(=O)N3CCOc4ccccc43)C2)cc1 (centres undefined) |  | inconclusive: 12.6 µM [cytotoxic, single point] |
| CCCCN(CC)CCCNC(=O)Cn1ncc2c3ccccc3n(Cc3ccccc3F)c2c1=O |  | inconclusive: 31.6 µM [cytotoxic, single point] |
| CCOC(=O)c1[nH]c2cc(OC)c(OC)cc2c1NC(=O)CN(C)C1CCCCC1 |  | inconclusive: 31.6 µM [cytotoxic, single point] |
| Cc1ccc(-c2n[nH]c3c2C(c2cccc(O)c2)N(c2ccc(C(=O)O)cc2)C3=O)cc1 (centres undefined) | inactive: -0.658% |  |
| CC(=O)c1ccc(NC(=O)Cn2cnc3nc4c(cc3c2=O)CC(C)CC4)cc1 (centres undefined) |  | inconclusive: 7.94 µM [cytotoxic, partial curve, poor fit] |
| CCCCC(=O)Oc1ccc2oc(-c3ccc(OC)cc3)cc(=O)c2c1 |  | active: 6.31 µM |
| O=C(c1ccncc1)N1CCC[C@@]2(CCN(Cc3cc(C(F)(F)F)cc(C(F)(F)F)c3)C2)C1 | inactive: -11% |  |
| CCCCCCCCCCCCCCCCCC(=O)O[C@H](CC(=O)O)C[N+](C)(C)C |  | inconclusive: 12.6 µM [cytotoxic, partial curve] |
| CCOC(=O)c1c(C)c(-c2ccccc2)n(CC(=O)NCc2cccc(OC)c2)c1C |  | inconclusive: 15.8 µM [cytotoxic, partial curve] |
| CC(=O)OC1CCC2(C)C(=CCC3C2CCC2(C)C3C[C@@H]3O[C@]32C(C)=O)C1 (some centres undefined) | inactive: -9.14% |  |
| CC(C)c1nc(SCC(=O)N2CCN(c3ccccc3)CC2)c2c(=O)n(C)c(=O)n(C)c2n1 |  | inconclusive: 31.6 µM [cytotoxic, single point] |
| CCOc1ccccc1NC(=O)CSc1nnc2[nH]c(=O)cc(-c3ccccc3)n12 |  | inconclusive: 10 µM [cytotoxic, single point] |
| O=C1N(Cc2ccccc2)c2ccc(Cl)cc2C1(O)c1c[nH]c2ccccc12 (centres undefined) |  | inconclusive: 15.8 µM [cytotoxic, single point] |
| CCc1cc2c(=O)c(-c3ccc4c(c3)OCCO4)coc2cc1OC(=O)c1ccco1 |  | active: 7.94 µM |
| Brc1ccc(-c2nnc(-c3ccc4c(c3)OCO4)o2)o1 |  | inconclusive: 7.94 µM [cytotoxic, partial curve] |
| CNC(=O)c1c(NC(=O)c2ccc(S(=O)(=O)N3CCCCC3)cc2)sc2c1CCC2 | inactive: -7.69% |  |
| Clc1cccc(-c2nc(-c3ccccn3)no2)c1 |  | active: 3.16 µM |
| CNCCC=C1c2ccccc2CCc2ccccc21 |  | inactive and active: 20 µM |
| CN(c1ccc(O)cc1)c1nc(-c2ccccc2)cs1 |  | inconclusive: 12.6 µM [cytotoxic, single point] |
| CCc1ccccc1NC(=O)Cn1nnc(C(=O)NCc2ccccc2Cl)c1N |  | inconclusive: 1.26 µM [cytotoxic, single point] |
| N#Cc1ccc2ccn(CC(=O)NC3CCCCC3)c2c1 | inactive: -6.45% |  |
| CCN(CC)CC(C)CNC(=O)c1cc(-c2ccc(Br)s2)nc2ccccc12 (centres undefined) |  | inconclusive: 20 µM [cytotoxic, single point] |

Reference: PubChem BioAssay AID902 (National Center for Advancing Translational Sciences (NCATS), 2007)
